Results as given in the BET-seq Pho4 binding data (Le et al. 2018).
The list shows a part of the results. These are noisy estimates, calculated here from bound and input reads.

target: T1, Pho4 (S. cerevisiae) (UniProt P07270); test: relative binding free energy (BET-seq); higher = weaker binding; details: reference: library average
T1 sequence: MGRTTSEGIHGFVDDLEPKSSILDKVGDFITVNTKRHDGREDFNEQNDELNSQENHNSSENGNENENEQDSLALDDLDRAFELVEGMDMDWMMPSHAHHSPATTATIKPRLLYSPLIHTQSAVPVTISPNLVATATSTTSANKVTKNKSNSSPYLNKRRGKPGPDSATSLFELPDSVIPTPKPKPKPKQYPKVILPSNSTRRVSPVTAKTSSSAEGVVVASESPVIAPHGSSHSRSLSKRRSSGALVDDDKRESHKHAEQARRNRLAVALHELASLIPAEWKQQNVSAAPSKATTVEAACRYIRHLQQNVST

Sequence	relative binding free energy [kcal/mol]
TTTATCACGTGATTAT	0.19
TGCCTCACGTGCGGTG	0.14
GGTGACACGTGGGAGT	0.07
CGAGACACGTGGTTGG	-0.11
GGGAGCACGTGCAAGG	-0.13
TGAAGCACGTGGTTCT	-0.08
ACTGTCACGTGGTGAA	0.23
TGAGACACGTGGAGTG	-0.07
CTTCTCACGTGTTGGA	0.27
GTGGTCACGTGTGGAT	0.29
GTAGTCACGTGTTAAT	0.18
GATGCCACGTGAGTTT	0.34
GGGTGCACGTGTATCG	-0.03
AGTAACACGTGGGGGC	-0.16
TTAGTCACGTGTAGCT	0.1
GCTGTCACGTGGTGCT	0.07
TTATACACGTGTAGGG	-0.01
GTATTCACGTGCTTTT	0.21
TGGTTCACGTGTGGTT	0.4
TTGTTCACGTGTTTGG	0.37
TGATACACGTGCGGAG	0.1
TTTGTCACGTGTAGCG	0.16
AGGATCACGTGTTTTA	0.18

Sequence	relative binding free energy [kcal/mol]
CATGTCACGTGGGGCG	0.04
TATGTCACGTGTGACT	0.1
TAATGCACGTGAATGT	0.19
GGGAACACGTGTTGCG	0.09
TGGGTCACGTGATCCG	0.17
GAATGCACGTGTGAAT	0.27
GTCTGCACGTGGTTCA	0.07
TATGTCACGTGTGCTG	0.16
AGAATCACGTGTTATT	0.1
CTGGTCACGTGGGTCG	-0.02
GTTGGCACGTGGAGTT	0.01
GTTTTCACGTGCTAAT	0.24
AATTTCACGTGGTCTT	0.26
TATGTCACGTGCTGAG	-0.01
TTCTTCACGTGTCTAT	0.29
AACAACACGTGGGGTG	-0.1
TGGCTCACGTGGTATA	0.27
TCGGCCACGTGGGGGT	-0.28
ATGTGCACGTGTGCAG	-0.02
TCGAGCACGTGAGTTG	0.15
GAGTCCACGTGTTTTG	0.22
GTGTCCACGTGGGTGC	-0.17
CGAGGCACGTGAAGGT	0.2

Sequence	relative binding free energy [kcal/mol]
GATTGCACGTGTGCTG	0.18
TATGGCACGTGGGGAA	-0.15
TTTGTCACGTGAAGGG	0.24
TGTTACACGTGTATTC	-0.03
GGTGACACGTGGCTAG	0.01
GGAGGCACGTGGAAGA	-0.01
CCTTTCACGTGATGTT	0.18
GCTGGCACGTGCGGGA	-0.24
GGTAACACGTGTTTTG	0
GTGCTCACGTGAAGGA	0.38
CGGTGCACGTGCGGCT	-0.15
ATACTCACGTGTATTG	0.06
GTGGGCACGTGATGGT	0.16
GCGGCCACGTGGGGTT	0
TATTCCACGTGGGGTA	-0.23
TGGCACACGTGTGGCT	0.15
ACTGACACGTGTGTGG	0.02
ATTCGCACGTGGGGAA	-0.07
GGCGGCACGTGGAGTT	0.02
ACTCGCACGTGGGGGT	-0.25
CTTGGCACGTGAGTAG	0.16
CTAGACACGTGGGGGG	-0.1
GGGGGCACGTGATGCA	-0.27

Sequence	relative binding free energy [kcal/mol]
TGTGTCACGTGGCAAG	-0.12
TGTTACACGTGAGTAA	0.34
TAACACACGTGGGGGT	-0.19
TACGACACGTGATGGT	0.11
GTTTGCACGTGCGGGA	0
TGGTTCACGTGATTAG	0.41
AGTCGCACGTGGTTAA	-0.13
GGGGACACGTGGTCCG	0.01
TGGTCCACGTGGTGTC	0.04
GTTATCACGTGCTTGG	0.21
TCAGGCACGTGCTTTG	-0.09
GTTTTCACGTGCTGAG	0.29
TTGTTCACGTGATTCG	0.33
TTTGTCACGTGGGGGA	-0.03
ATTAGCACGTGGTGTC	-0.25
GGGGACACGTGGGTTA	-0.06
TTTTTCACGTGACAGT	0.32
TTTAACACGTGTGCGT	-0.13
AGATACACGTGTTGTA	0.07
AGAGACACGTGGTTGT	-0.12
GGTTTCACGTGAAAGA	0.47
ATGTGCACGTGGAACG	0.11
GATCGCACGTGTAAGG	0.09

Sequence	relative binding free energy [kcal/mol]
GGTAACACGTGGAAGT	0.11
TCAGTCACGTGGTGGA	0.06
GGTGTCACGTGTGTCG	0.16
TGGTTCACGTGAGTAC	0.31
GCTAGCACGTGCTGGG	-0.07
GCGGGCACGTGGACTG	-0.05
TCTGACACGTGAGTGG	0.3
TGAAACACGTGAGGAG	0.3
GGAAGCACGTGATGGC	0.11
CTTAGCACGTGCGTTT	0.06
TAGTGCACGTGGCGTG	-0.18
TTAAACACGTGAAGTT	0.34
GGTTGCACGTGGTCTA	-0.1
AGTCGCACGTGGGTTT	-0.13
TTTCTCACGTGGTGCA	0.18
TAGTTCACGTGGCAGA	0.46
CGGGTCACGTGGCGTT	0.1
TTGTTCACGTGTTTTT	0.36
TCGGTCACGTGAGTGA	0.19
GGTAGCACGTGATAAG	0.04
ATGTGCACGTGTGAGA	0.15
TTATTCACGTGAGCGT	0.31
TGTGGCACGTGACGTT	0.11
